Measured values from the supplement of paper PMC12582362.
Structures can show the parent of a compound that is named as a salt. About 30 (2%) of roughly 1,500 compounds showed activity.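 How the source made its calls: active = robust z-score below -2; a few such results were not called.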 The list shows a part of the results.

Tested on: optoTopBP1 Flp-In 293 T-REx (HEK293) cells
Assay: light-induced TopBP1 condensate (nuclear foci) count, plate-normalised robust z-score vs non-control wells; higher = more TopBP1 condensates (negative = condensation inhibitor), active = hit call of the paper
Settings: 10 µM; incubation time 2 h

Structure (SMILES)	light-induced TopBP1 condensate (z-score)
Cc1cc2nc3c(=O)[nH]c(=O)nc-3n(C[C@H](O)[C@H](O)[C@H](O)CO)c2cc1C [Riboflavine]	inactive: 1.04
CCCOc1ccc2[nH]c(NC(=O)OC)nc2c1 [Oxibendazol]	active: -3.01
CN(C)CCOC(c1ccccc1)c1ccccc1.Cn1c(=O)c2[nH]c(Cl)nc2n(C)c1=O [Dimenhydrinate]	inactive: -0.665
CN(CCCN1c2ccccc2CCc2ccccc21)CC(=O)c1ccc(Cl)cc1 [Lofepramine]	inactive: -2.06
Clc1ccc2c(c1)CCc1cccnc1C2=C1CCNCC1 [Desloratadine]	inactive: -1.12
O=C1NCC2(CCN(CCc3ccccc3)CC2)O1 [Fenspiride hydrochloride]	inactive: 0.804
CC(=O)O[C@]1(C(C)=O)CC[C@H]2[C@@H]3C=C(Cl)C4=CC(=O)CC[C@]4(C)[C@H]3CC[C@@]21C [Chlormadinone acetate]	inactive: -0.442
CCCNC(=O)NS(=O)(=O)c1ccc(Cl)cc1 [Chlorpropamide]	inactive: 1.05
CCN(CC)C(C)CN1c2ccccc2Sc2ccccc21 (stereo not given) [Ethopropazine hydrochloride]	inactive: -0.281
Cc1cc(O)c(C(=O)N[C@@H](C(=O)N[C@@H]2C(=O)N3C(C(=O)O)=C(CSc4nnnn4C)CS[C@H]23)c2ccc(O)cc2)cn1 [Cefpiramide]	inactive: -0.119
CO[C@H]1/C=C/O[C@@]2(C)Oc3c(C)c(O)c4c(O)c(c5c(nc6cc(C)ccn65)c4c3C2=O)NC(=O)/C(C)=C\C=C\[C@H](C)[C@H](O)[C@@H](C)[C@@H](O)[C@@H](C)[C@H](OC(C)=O)[C@@H]1C [Rifaximin]	inactive: 0.13
O=C1[C@H]2CCCC[C@H]2C(=O)N1CCCCN1CCN(c2nsc3ccccc23)CC1 [Perospirone]	inactive: -0.904
Clc1cccc(Cl)c1NC1=NCCN1 [Clonidine hydrochloride]	inactive: -0.77
Nc1nc2c(ncn2COC(CO)CO)c(=O)[nH]1 [Ganciclovir]	inactive: 0.417
NCCCCCC(=O)O [Aminocaproic acid]	inactive: -0.559
CN(C)C(=N)NC(=N)N [Metformin hydrochloride]	inactive: -0.726
CC=CC(=O)N(CC)c1ccccc1C [Crotamiton]	inactive: -1.09
CC1=C(C)C(=O)C(C(CCCCCC(=O)O)c2ccccc2)=C(C)C1=O (stereo not given) [Seratrodast]	inactive: -1.1
CNCCc1ccccn1 [Betahistine mesylate]	inactive: 0.27
Nc1ccc(C(=O)O)c(O)c1 [4-aminosalicylic acid]	inactive: 0.727
O=C1Nc2ccc(Cl)cc2[C@@](C#CC2CC2)(C(F)(F)F)O1 [Efavirenz]	inactive: 0.0551
CC[N+](C)(CC)CCC[n+]1c(-c2ccccc2)c2cc(N)ccc2c2ccc(N)cc21 [Propidium iodide]	active: -3.58
O=C(O)c1ccccc1Nc1cccc(C(F)(F)F)c1 [Flufenamic acid]	inactive: -0.164
Clc1ccc(C(c2ccccc2Cl)C(Cl)Cl)cc1 (stereo not given) [Mitotane]	inactive: 0.00706

Structure (SMILES)	light-induced TopBP1 condensate (z-score)
O=C1O[C@H]([C@@H](O)CO)C(O)=C1O [Ascorbic acid]	inactive: -0.0853
Cc1cccc(C)c1OCC(=O)N[C@@H](Cc1ccccc1)[C@@H](O)C[C@H](Cc1ccccc1)NC(=O)[C@H](C(C)C)N1CCCNC1=O [Lopinavir]	inactive: 0.599
Nc1ccc(/N=N/c2ccccc2)c(N)n1 [Phenazopyridine hydrochloride]	inactive: -0.255
CN(C)CCOC(=O)C(c1ccccc1)C1(O)CCCC1 (stereo not given) [Cyclopentolate hydrochloride]	inactive: 0.437
CCC(=O)O[C@]1(C(=O)SCF)[C@H](C)C[C@H]2[C@@H]3C[C@H](F)C4=CC(=O)C=C[C@]4(C)[C@@]3(F)[C@@H](O)C[C@@]21C [Fluticasone propionate]	inactive: -0.0165
OCCN1CCN(CC/C=C2/c3ccccc3Sc3ccc(Cl)cc32)CC1 [Zuclopenthixol dihydrochloride]	inactive: -0.966
Nc1nc(/C(=C/CC(=O)O)C(=O)N[C@@H]2C(=O)N3C(C(=O)O)=CCS[C@H]23)cs1 [Ceftibuten]	inactive: -1.27
CCc1nn(CCCN2CCN(c3cccc(Cl)c3)CC2)c(=O)n1CCOc1ccccc1 [Nefazodone hydrochloride]	inactive: -0.145
CCCNC(C)(C)COC(=O)c1ccccc1 [Meprylcaine hydrochloride]	inactive: 0.755
CC(NCCc1ccc(O)cc1)C(O)c1ccc(O)cc1 (stereo not given) [Ritodrine hydrochloride]	inactive: 1.34
C[N+](C)(CCOc1ccccc1)Cc1ccccc1.O=C([O-])c1cc2ccccc2cc1O [Bephenium hydroxynaphthoate]	inactive: -0.589
CCC1(C)CC(=O)NC1=O (stereo not given) [Ethosuximide]	inactive: 0.0465
NC1CCN(c2c(F)cc3c(=O)c(C(=O)O)cn(C4CC4)c3c2Cl)C1 (stereo not given) [Clinafloxacin]	inactive: -0.309
O=[N+]([O-])c1ccc(O)c2ncccc12 [Nitroxoline]	inactive: 0.749
CCCc1nn(C)c2c(=O)[nH]c(-c3cc(S(=O)(=O)N4CCN(C)CC4)ccc3OCC)nc12 [Sildenafil]	inactive: -0.947
CC(=O)Oc1ccc(C(c2ccc(OC(C)=O)cc2)c2ccccn2)cc1 [Bisacodyl]	inactive: 0.512
CCOC(=O)CC(=O)N1CCSC1COc1ccccc1OC (stereo not given) [Moguisteine]	inactive: 0.754
O=C(O)CCC(=O)c1ccc(-c2ccccc2)cc1 [Fenbufen]	inactive: 0.416
CN1CCN2c3ccccc3Cc3ccccc3C2C1 (stereo not given) [Mianserine hydrochloride]	inactive: 0.926
CCCCc1ncc(/C=C(\Cc2cccs2)C(=O)O)n1Cc1ccc(C(=O)O)cc1 [Eprosartan mesylate]	inactive: -0.194
N[C@@H](Cc1ccc(O)c(O)c1)C(=O)O [Levodopa]	inactive: 1.84
O=C(NC(Cc1cc(=O)[nH]c2ccccc12)C(=O)O)c1ccc(Cl)cc1 (stereo not given) [Rebamipide]	inactive: 0.803
C[N+](C)(C)CCOC(N)=O [Carbachol]	inactive: -0.457
CC(C)(C)NC[C@H](O)COc1cccc2c1CCCC2=O [(-) -Levobunolol hydrochloride]	inactive: 0.421

Structure (SMILES)	light-induced TopBP1 condensate (z-score)
NS(=O)(=O)c1cc(C(=O)NN2C[C@@H]3[C@H]4CC[C@H](C4)[C@@H]3C2)ccc1Cl [Tripamide]	inactive: -0.842
Nc1ncn(C2OC(CO)C(O)C2O)c(=O)n1 (stereo not given) [Azacytidine-5]	inactive: 0.0662
CCOC(=O)C1=C(C)NC(C)=C(C(=O)OC)C1c1cccc(Cl)c1Cl (stereo not given) [Felodipine]	inactive: -0.577
C[C@H](CCC(=O)O)[C@H]1CC[C@H]2[C@@H]3C(=O)C[C@@H]4CC(=O)CC[C@]4(C)[C@H]3CC(=O)[C@]12C [Dehydrocholic acid]	inactive: 0.409
O=C1c2c(O)ccc(O)c2C(=O)c2c(NCCNCCO)ccc(NCCNCCO)c21 [Mitoxantrone dihydrochloride]	inactive: 0.271
CCN(CC)CCNC(=O)c1cc(Br)c(N)cc1OC [Bromopride]	inactive: 0.208
CCCCC(=O)N(Cc1ccc(-c2ccccc2-c2nnn[nH]2)cc1)[C@H](C(=O)O)C(C)C [Valsartan]	inactive: -1.04
OC(CCN1CCCCC1)(c1ccccc1)c1ccccc1 [Pridinol methanesulfonate salt]	inactive: -0.572
OCC(CO)N[C@H]1C[C@](O)(CO)[C@@H](O)[C@H](O)[C@H]1O [Voglibose]	inactive: 1.28
CC(C)NNC(=O)c1ccncc1 [Iproniazide phosphate]	inactive: 0.572
O=C1c2cccc(O)c2C(=O)c2c(O)cccc21 [1,8-Dihydroxyanthraquinone]	active: -2.97
CC12CC3CC(C)(C1)CC(N)(C3)C2 [Memantine Hydrochloride]	inactive: 0.9
C#C[C@]1(O)CC[C@H]2[C@@H]3CCC4=Cc5oncc5C[C@]4(C)[C@H]3CC[C@@]21C [Danazol]	inactive: 0.344
O=C(Nc1ccc([N+](=O)[O-])cc1Cl)c1cc(Cl)ccc1O [Niclosamide]	inactive: -1.32
CCOc1ccc(Cc2nccc3cc(OCC)c(OCC)cc23)cc1OCC [Ethaverine hydrochloride]	inactive: -0.0348
CCC[C@@H]1C[C@@H](C(=O)N[C@@H]([C@H]2O[C@H](SC)[C@H](O)[C@@H](O)[C@H]2O)[C@@H](C)O)N(C)C1 [Lincomycin hydrochloride]	inactive: -0.962
CCN(CC)CCN[C@@H](C(=O)OCCC(C)C)c1ccccc1 [Camylofine chlorhydrate]	inactive: -0.499
CN1CCCN=C1/C=C/c1cccs1 [Pyrantel tartrate]	inactive: 0.346
NNC(=O)c1ccncc1 [Isoniazid]	inactive: 0.382
CC1(C)O[C@@H]2C[C@H]3[C@@H]4C[C@H](F)C5=CC(=O)CC[C@]5(C)[C@H]4[C@@H](O)C[C@]3(C)[C@]2(C(=O)CO)O1 [Flurandrenolide]	inactive: 1.46
O=C(O)c1cccnc1 [Niacin]	inactive: 0.225
CCCCc1oc2ccccc2c1C(=O)c1cc(I)c(OCCN(CC)CC)c(I)c1 [Amiodarone hydrochloride]	inactive: 0.163
